Results reported in article PMC4336329 (PLoS ONE, 2015).
Out of some 310,000 compounds screened, about 2,200 (0.71%) showed an effect of 50% or more. Effects have a minus sign here. The list shows a part of the results.

target: human ether-à-go-go-related gene (hERG) potassium channel (human, UniProt Q12809); assay: primary screen, population patch clamp on CHO cells stably expressing hERG
Sequence (Q12809 whole entry, looked up): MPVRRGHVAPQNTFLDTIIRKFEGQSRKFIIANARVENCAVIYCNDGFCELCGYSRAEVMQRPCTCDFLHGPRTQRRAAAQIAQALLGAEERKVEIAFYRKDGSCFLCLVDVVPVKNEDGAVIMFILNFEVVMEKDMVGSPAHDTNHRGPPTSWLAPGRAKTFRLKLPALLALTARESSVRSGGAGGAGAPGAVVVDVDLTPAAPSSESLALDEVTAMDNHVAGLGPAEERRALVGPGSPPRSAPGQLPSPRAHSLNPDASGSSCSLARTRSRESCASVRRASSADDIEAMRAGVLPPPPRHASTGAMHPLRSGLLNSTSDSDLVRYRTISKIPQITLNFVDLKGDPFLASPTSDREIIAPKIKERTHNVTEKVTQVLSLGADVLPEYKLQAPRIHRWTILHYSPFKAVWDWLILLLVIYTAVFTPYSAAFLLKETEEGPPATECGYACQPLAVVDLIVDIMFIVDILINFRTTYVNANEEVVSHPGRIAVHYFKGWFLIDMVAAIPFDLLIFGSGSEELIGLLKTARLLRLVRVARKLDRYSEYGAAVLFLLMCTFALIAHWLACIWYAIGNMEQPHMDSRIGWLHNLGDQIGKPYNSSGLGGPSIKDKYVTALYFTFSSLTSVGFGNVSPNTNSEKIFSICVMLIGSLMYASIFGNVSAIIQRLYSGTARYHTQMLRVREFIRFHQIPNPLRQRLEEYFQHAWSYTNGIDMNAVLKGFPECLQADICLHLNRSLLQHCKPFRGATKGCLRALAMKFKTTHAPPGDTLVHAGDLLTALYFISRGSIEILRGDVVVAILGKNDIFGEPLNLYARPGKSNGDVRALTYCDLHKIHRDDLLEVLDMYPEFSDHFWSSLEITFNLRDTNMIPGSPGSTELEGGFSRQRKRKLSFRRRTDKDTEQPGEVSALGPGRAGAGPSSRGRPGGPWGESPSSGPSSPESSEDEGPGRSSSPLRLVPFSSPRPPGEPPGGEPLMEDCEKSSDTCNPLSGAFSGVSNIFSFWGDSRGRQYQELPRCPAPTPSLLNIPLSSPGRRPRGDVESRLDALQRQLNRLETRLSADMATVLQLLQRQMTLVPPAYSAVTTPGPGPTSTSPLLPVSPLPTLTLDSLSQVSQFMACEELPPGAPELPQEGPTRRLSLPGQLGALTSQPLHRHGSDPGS

Row | SMILES | hERG current change (%, negative = inhibition) at 1uM
1 | COc1ccc(OC)c(NC2=C(Cl)C(=O)N(Cc3ccccc3)C2=O)c1 | 6.27%
2 | CCc1nnc(NC(=O)CCC(=O)N2CCN(C3CCCCC3)CC2)s1 | 5.37%
3 | CC1CCN(C(=O)CNC(=O)Cc2ccccc2)CC1 | 1.45%
4 | O=C(C1CCCN(S(=O)(=O)c2cccc3nsnc23)C1)N1CCCCCC1 (stereo not drawn) | 3.37%
5 | Cc1c(C#N)c(=O)c(-[n+]2ccccc2)c([S-])n1-c1ccc(Cl)cc1 | 7.31%
6 | CCC(=O)N1CCc2cc(S(=O)(=O)NCCC(=O)NCc3ccc(F)cc3)ccc21 | 3.39%
7 | O=C(COc1ccc(-c2ccccc2)cc1)NN=C1CCCC1 | 5.37%
8 | COc1ccc(NC(C)=O)c(C)c1 | 14%
9 | CC(C)Cn1c(N)c(C(=O)COC(=O)C2CCCCC2)c(=O)n(C)c1=O | -4.5%
10 | Cc1csc(C(=O)O)c1NC(=O)c1cccc([N+](=O)[O-])c1 | 7.95%
11 | Cc1nc2cc(NC(=O)NCc3ccco3)ccc2n1C | 11.9%
12 | COc1ccc(CN(CC(=O)NCCC(C)C)C(=O)CCC(=O)Nc2nccs2)cc1 | 8.41%
13 | COc1ccc(C(=O)N2CCC(C(=O)NCc3ccccn3)CC2)cc1 | -5.12%
14 | NC(=O)CC(NC(=O)Cc1ccc(Cl)cc1)c1ccc(NC2CCCCCC2)c([N+](=O)[O-])c1 (stereo not drawn) | 11.2%
15 | O=C(O)C1CCCN1C(=O)C12CC3CC(CC(C3)C1)C2 (stereo not drawn) | 11.9%
16 | Cl.FC(F)(F)Oc1ccc(Nc2nc(N3CCOCC3)nc(N3CCOCC3)n2)cc1 | -3.04%
17 | O=C(Oc1ccc(Oc2ccccc2)cc1)N1CCC(O)CC1 | 17.1%
18 | O=C(Nc1cccc2c1CCCC2)C1CCCN(S(=O)(=O)c2cccc3nonc23)C1 (stereo not drawn) | 4.31%
19 | CCOc1ccc2nc(NC(=O)COc3ccc(N(C)S(=O)(=O)c4ccc(C)cc4)cc3)sc2c1 | 18%
20 | O=C(NCc1ccco1)c1cccc(S(=O)(=O)N2CCOCC2)c1 | -3.55%
21 | CC1CC(C)CN(C(=O)CCNC(=O)Cn2cnc3ccccc3c2=O)C1 (stereo not drawn) | 18.3%
22 | Nc1c(Sc2ccccc2)c(=O)[nH]c(=O)n1Cc1ccccc1 | -13.3%

Row | SMILES | hERG current change (%, negative = inhibition) at 1uM
23 | COc1ccc2c(Cl)c(-c3nnc(SCC(N)=O)n3C)sc2c1 | 15.5%
24 | CC(C)C(NC(=O)CCNC(=O)c1ccc(C(C)(C)C)cc1)c1nc2ccccc2[nH]1 (stereo not drawn) | 8.67%
25 | CC(C)(C)CC(=O)N[C@@H](Cc1ccccc1)c1nc2ccccc2[nH]1 | 16.2%
26 | O=C(Nc1cnc2ccccn2c1=O)c1ccc(Cl)cc1Cl | 13.9%
27 | CN(C)CCNC(=O)Nc1cccc(Cl)c1Cl | -1.43%
28 | N=C1C(=O)OCC1c1ccccc1NC(=O)CN1CCOCC1 (stereo not drawn) | 17.5%
29 | Cc1nn(C)c(C)c1S(=O)(=O)N1CCC(C(=O)NCCC2=CCCCC2)CC1 | 7.39%
30 | CCCCC(CC)C(=O)NCC(C)NC(=O)C(CC)CCCC (stereo not drawn) | 1.69%
31 | CC1=Nc2cccc3cccc(c23)N1 | 6.9%
32 | O=C(Cc1cnc2ncnn2c1)N1CCc2c([nH]c3ccccc23)C1c1ccccc1F (stereo not drawn) | 14.4%
33 | Cc1nc2ccc(S(=O)(=O)Nc3cc(-c4nc5cccnc5s4)ccc3C)cc2s1 | 4.41%
34 | COC(=O)c1cc(NC(=O)CN2C(=O)CSC2=O)ccc1Cl | 4.34%
35 | COCCn1c(SCC(=O)Nc2cc(C)on2)nc2cc(Cl)ccc2c1=O | 4.54%
36 | O=C(O)c1cc(-c2ccccc2)n(-c2ccc(F)cc2)n1 | 12.5%
37 | COc1cc(-c2nc(C(=O)NC3CCCCC3)cc3c2[nH]c2ccccc23)cc(OC)c1OC | 1.26%
38 | COc1ccc(Cn2nnc(C(=O)Nc3ccc(F)cc3)c2N)cc1 | -1.13%
39 | COc1ccc(CCNC(=O)CCn2c(SCC(=O)N3CCCC3)nc3ccccc3c2=O)cc1OC | 12.9%
40 | CCc1nnc(NC(=O)C2(C)COC(c3ccc(OC)cc3)OC2)s1 (stereo not drawn) | 10.9%
41 | CCC(=O)c1ccc(OC(=O)C2CCN(C3=NS(=O)(=O)c4ccccc43)CC2)cc1 | 8.47%
42 | Cc1nc(SCC(=O)Nc2nc3ccccc3s2)c(C#N)c(C)c1C | 13.5%
43 | COc1ncnc2sc(-c3ccccc3)cc12 | 11%
44 | CCCC(=O)Nc1nc(C(=O)OCC)cs1 | 16%

Row | SMILES | hERG current change (%, negative = inhibition) at 1uM
45 | CCC(CC)C(=O)Nc1ccc(-c2cn3cccnc3n2)cc1 | 11.4%
46 | CCCOc1cccc(C(=O)N(Cc2ccc(OC)c(OC)c2)C2CCS(=O)(=O)C2)c1 (stereo not drawn) | 7.08%
47 | Cc1onc(-c2ccccc2)c1-c1nnc(CN2CCN(S(=O)(=O)c3ccccc3)CC2)o1 | 5.85%
48 | CC(=O)Oc1ccccc1C(=O)Nc1ccccc1 | 12.8%
49 | CCCn1c(SCC(=O)Nc2cccc(C)n2)nnc1C(C)C | 14.5%
50 | Cc1cc(Cl)c(OCCCCN2CCOCC2)c(Br)c1 | 4.92%
51 | CC(C)=CC(=O)N1CCC(n2nccc2NC(=O)CCc2ccccc2)CC1 | 18.3%
52 | CCOC(=O)CCCc1c[nH]c2ccccc12 | 5.54%
53 | COc1cc(Br)c(C2C(C#N)=C(N)Oc3n[nH]c(-c4cccnc4)c32)cc1OC (stereo not drawn) | 13%
54 | Cc1ccccc1C(=O)N/N=C/c1cccc2ccccc12 | 11.7%
55 | O=C(CSc1nnc(-c2cccs2)n1-c1ccccc1)NCc1ccc2c(c1)OCO2 | -33.8%
56 | CCOC(=O)c1c(-c2cccs2)csc1NC(=O)c1ccco1 | 6.7%
57 | COC(=O)c1cn(NC(=O)/C=C/c2ccc(OC)c(OC)c2)c(=O)c2ccccc12 | 2.74%
58 | Cc1cc(C)n(-c2ccc(C(=O)OCC(=O)Nc3cc(S(C)(=O)=O)ccc3Cl)cc2)n1 | 3.24%
59 | Cc1oc(-c2ccccc2)cc1C(=O)Nc1ccc(N(C)C)cc1 | 13.4%
60 | O=c1c2sccc2[nH]c(=S)n1Cc1ccccc1 | 12.3%
61 | O=C(c1cc2cc([N+](=O)[O-])ccc2s1)N1CCOCC1 | 3.8%
62 | CCCc1cc(=O)oc2cc(OCC(=O)N(C)C)c(Cl)cc12 | 14%
63 | COc1ccc(Br)cc1C(=O)Nc1cccc2ncccc12 | 15.9%
64 | CCN1CCN(C(c2cccs2)C(C)NS(=O)(=O)c2ccc(C)cc2)CC1 (stereo not drawn) | 15.6%
65 | COc1cccc(CNC(=O)C23CN(Cc4ccccc4)CC2C(c2ccc([N+](=O)[O-])cc2)=NO3)c1 (stereo not drawn) | -0.219%
66 | Cc1cc(F)ccc1S(=O)(=O)N1CCCOC1CNC(=O)C(=O)NCCc1c[nH]c2ccccc12 (stereo not drawn) | 6.65%

Row | SMILES | hERG current change (%, negative = inhibition) at 1uM
67 | CC1CN=C(NCc2ccccc2Cl)S1 (stereo not drawn) | 12.4%
68 | CCN1C(=O)[C@H]2[C@@H](c3ccc(-c4ccc(C(C)=O)cc4)c(OC)c3)N[C@@](Cc3ccccc3)(C(=O)OC)[C@H]2C1=O.O=C(O)C(F)(F)F | 12.1%
69 | O=C(CC1C(=O)NCCN1Cc1ccc(-c2ccccc2)cc1)NCc1ccncc1 (stereo not drawn) | 6.26%
70 | COC(=O)[C@@H]1C[C@@H]2CC[C@@H](O)C[C@@H]2N1Cc1ccc(Cl)cc1 | 25.7%
71 | N#C/C(=C\c1ccc([N+](=O)[O-])o1)c1nc2ccccc2[nH]1 | 11.5%
72 | O=C(NCCN1C(=O)S/C(=C\c2ccccc2F)C1=O)C1CC(=O)N(Cc2ccccc2)C1 (stereo not drawn) | 6.55%
73 | O=C1Nc2ccccc2N(O)N1c1ccc(Cl)c(Cl)c1 | 13.3%
74 | Cc1ccc(C(=O)CSc2nnc3n2CCCCC3)s1 | 5.62%
75 | CCC(C)(C)NC(=O)C(c1cccs1)N(CC1CCCO1)C(=O)Cn1nnc2ccccc21 (stereo not drawn) | 9.67%
76 | CC(CC(=O)N(CCC1=CCCCC1)c1c(N)n(Cc2ccccc2)c(=O)[nH]c1=O)c1ccccc1 (stereo not drawn) | 15.4%
77 | Cc1ccccc1COCCN1CCN(S(=O)(=O)c2ccccc2)CCC1=O | 8.86%
78 | O=C(CCN1C(=O)/C(=C/c2ccccc2F)SC1=S)N[C@@H](CO)Cc1ccccc1 | 6.24%
79 | CCCCCCC1CC(C)(C(=O)C[NH2+]c2nncs2)OC1=O.[Br-] (stereo not drawn) | -32.3%
80 | O=C(NCCc1ccc(F)cc1)c1cc(=O)c2ccccc2o1 | 7.95%
81 | Nc1nccnc1C(=O)OCC(=O)NCCc1ccc(S(N)(=O)=O)cc1 | 12.7%
82 | COc1ccc(OC)c(-c2csc3nnc(SCC(=O)Nc4ccc(NC(C)=O)cc4)n23)c1 | -2.97%
83 | CCOC(=O)c1ccc(N=Nc2c(C)[nH]n(-c3ccccc3)c2=O)cc1 | 13.7%
84 | C=C(C)Cn1c(C(C)NC(=O)CCC)nc2ccccc21 (stereo not drawn) | 15.8%
85 | C/C(=N\NC(=O)c1cccc(S(=O)(=O)Nc2cccc(Cl)c2)c1)c1cccs1 | 5.82%
86 | Cc1ccc(C2=NN(C)c3nc4ccccc4n3C2)cc1 | 7.06%
87 | Cn1cc(CN2CCCCC2C(=O)Nc2ccc(-n3cccn3)cc2)cn1 (stereo not drawn) | 20.2%
